# Source: PubChem BioAssay AID686978 (National Center for Advancing Translational Sciences (NCATS), 2013)
# The whole screen tested about 420,000 compounds, of which about 64,000 (15%) were called active. Inconclusive means that the source gave no clear call. Such entries were picked first, then a sample of the others. Calls come from the whole dose curve; as a rule, active = well fitted inhibition curve with a large enough effect; inconclusive = small, poorly fitted or top-dose-only effect; inactive = flat fitted curve, though single readings scatter. Potencies of inconclusive entries are left out as doubtful fits.
# Assay: qHTS for Inhibitors of human tyrosyl-DNA phosphodiesterase 1 (TDP1): qHTS in cells in absence of CPT; note: nearly all actives have a fitted effect of over 55% in size
# Details: DT40 Tdp1-/- hTDP1 cells, no CPT, ATP luminescence, 48 h; activity change, negative = growth inhibition: at 46.2 µM (top of the series) unless noted
# Procedure, shortened: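 Compound effects on proliferation are scored in DT40 Tdp1-/-;hTDP1 cells in the absence of CPT. ATP levels (CellTiter-Glo luminescence) are recorded after a ≥48 hr, 37 °C incubation.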
# % is set by controls: 0 for no effect and ±100 for the full control effect; potency is the fitted concentration of half-maximal effect; tags give direction and shape of the fitted curve.
SMILES,"activity change, negative = growth inhibition",Potency
Cc1cc(NC(=O)COc2ccc3ccccc3c2)no1,inactive: 0.645%,–
Cn1cnc(S(=O)(=O)N2CCN(c3cccc(Cl)c3)CC2)c1,inactive: 16.5%,–
COc1ccc(/C(=N/O)C(C)(C)NO)cc1,–,"inconclusive [inhibitor, single point]"
CCOC(=O)c1ccc(NC(=O)CSc2nnc(C3CCCCC3)n2C)cc1,inconclusive: -31.4% [inhibitor],–
O=c1[nH]c2ccc(NCc3ccc(-c4cccc(Cl)c4)o3)cc2[nH]1,–,active: 18.4 µM
CC(C)c1ccc(NC(=O)Cn2nnc(C(=O)NCc3ccco3)c2N)cc1,inactive: 1.37%,–
Nc1ncc(Br)cc1N=Cc1ccccc1,inconclusive: -35.1% [inhibitor],–
CC(=O)Nc1ncnc2c1c(-c1ccc(Cl)cc1)nn2C(C)(C)C,–,"inconclusive [inhibitor, partial curve, poor fit]"
Cc1ccc2nc(NC(=O)Cc3cccs3)sc2c1,inactive: -18%,–
O=C(Nc1ccc2c(c1)CCC2)c1cc2ccccc2o1,–,"inconclusive [inhibitor, single point]"
CN1c2ccccc2C2(C)CCCC3=Cc4cccc([N+](=O)[O-])c4OC312 (configuration not stated),–,active: 16.4 µM
Cc1ccc(N=C2NC(=O)/C(=C/C=C/c3ccco3)S2)cc1,–,active: 23.1 µM
O=C(CNC(=O)c1ccccc1)NCC(=O)OCC(=O)c1ccc2ccccc2c1,inactive: -8.35%,–
COc1ccc2cc(C(=O)N/N=C/c3sc4ccccc4c3O)ccc2c1,–,active: 7.31 µM
Cc1cc(Cl)ccc1OCCCC(=O)NCc1ccncc1,–,"inconclusive [inhibitor, single point]"
CCc1ccccc1NC(=O)C(CC)Sc1ncnc2c1sc1ccccc12 (configuration not stated),–,"inconclusive [inhibitor, single point]"
COc1cc(OC)c(C(=O)O/N=C(\N)c2cccc(C)c2)cc1OC,–,"inconclusive [inhibitor, single point]"
CCOC(=O)[C@]12CCC=C1N(Cc1ccccc1)C(=O)[C@H](CC(=O)NCCC(C)C)C2,–,"inconclusive [inhibitor, single point]"
Cc1cccc(C)c1OCC(O)CN1CCC(CN2C(=O)c3cccc4cccc(c34)C2=O)CC1 (configuration not stated),–,active: 8.2 µM

SMILES,"activity change, negative = growth inhibition",Potency
Cc1ccc(NC(=O)CN2C(=O)C(c3ccc(F)cc3)=NC23CCCCC3)c(C)c1,–,"inconclusive [inhibitor, single point]"
O=C(N/N=C/c1ccc(Cl)s1)c1ccccc1[N+](=O)[O-],inconclusive: -32.6% [inhibitor],–
Cc1ccc(S(=O)(=O)NCC(=O)NCCc2c[nH]c3ccccc23)cc1C,–,"inconclusive [inhibitor, single point]"
CCc1nccn1CCC(=O)NC1CC(C)(C)Cc2c1cnn2-c1ccc(C)cc1 (configuration not stated),–,"inconclusive [inhibitor, single point]"
COc1ccc(COC(=O)Oc2ccc(CNC(C)=O)cc2OC)c([N+](=O)[O-])c1,inactive: 0.0308%,–
COc1ccc(/C=N/NC(=O)c2cc(C)oc2C)cc1OCc1ccccc1,–,"inconclusive [inhibitor, single point]"
CC(=O)Nc1cccc(-c2csc(C(C)(O)c3ccccc3)n2)c1 (configuration not stated),inactive: -27.8%,–
Nc1nc2ccc(Cl)cc2o1,inactive: -7.16%,–
COc1cccc(-n2cnnn2)c1,inactive: 2.94%,–
Cc1ccc2c(c1)C(=O)C(=O)N2c1ccc(C(F)(F)F)cc1,inactive: -22.4%,–
Cc1nn(CCOc2ccccc2)c(=O)n1-c1c(F)cccc1F,inactive: -0.901%,–
Cc1ccc(CNC(=O)c2ccc(S(=O)(=O)N(C)C)cc2)n1C,inactive: -13.3%,–
COc1ccccc1NC(=S)NCCc1ccc(Cl)cc1,–,"inconclusive [inhibitor, single point]"
COc1cc(/C=N/N(C)C)cc(Br)c1O,inactive: 0.841%,–
O=C1CCC/C=C\C[C@@H](CC(=O)N(CCO)Cc2ccccc2)C(=O)NCCO1,inactive: -2.52%,–
Cc1ccccc1CCNC(=O)Cn1ccc2cc(S(=O)(=O)N3CCCC3)ccc21,–,"inconclusive [inhibitor, single point]"
O=C(Cc1ccccc1)N(Cc1cccnc1)c1nc2c(F)cccc2s1,–,"inconclusive [inhibitor, single point]"
COc1cccc(C(=O)NC2CC3CCCC(C2)N3CC(=O)Nc2ccccc2)c1 (configuration not stated),–,"inconclusive [inhibitor, partial curve]"
